Measurements taken from the GPR68 mutational scans of Howard et al. (2025).
Scores whose standard error is large were omitted. The source holds two more conditions with little spread; they are left out. Names with del lack the residues named; names with ins carry added residues between the positions named. For some assays here: The data file names ogerin without a concentration.

B1: GPR68, Q15743 (parent)
chain: MGNITADNSSMSCTIDHTIHQTLAPVVYVTVLVVGFPANCLSLYFGYLQIKARNELGVYLCNLTVADLFYICSLPFWLQYVLQHDNWSHGDLSCQVCGILLYENIYISVGFLCCISVDRYLAVAHPFRFHQFRTLKAAVGVSVVIWAKELLTSIYFLMHEEVIEDENQHRVCFEHYPIQAWQRAINYYRFLVGFLFPICLLLASYQGILRAVRRSHGTQKSRKDQIQRLVLSTVVIFLACFLPYHVLLLVRSVWEASCDFAKGVFNAYHFSLLLTSFNCVADPVLYCFVSETTHRDLARLRGACLAFLTCSRTGRAREAYPLGAPEASGKSGAQGEEPELLTKLHPAFQTPNSPGSGGFPTGRLA

Assays:
[1] = variants of: B1; assay: cAMP reporter score (Enrich2 score, wild type = 0); higher = more signal; HEK293T, FACS bins
[2] = variants of: B1; assay: surface expression score (Enrich2 score, wild type = 0); higher = more signal; HEK293T, FACS bins

Which results are given for MGNITADNSSMSCTIDHTIHQTLAPVVYVTVLVVGFPANCLSLYFGYLQIKARNELGVYLCNLTVADLFYICSLPFWLQYVLQHDNWSHGDLSCQVCGILLYENIYISVGFLCCISVDRYLAVAHPFRFHQFRTLKAAVGVSVVIWAKELLTSIYFLMHEEVIEDENQHRVCFEHYPIQAWQRAINYYRFLVGFLFPICLLLASYQGILRHVRRSHGTQKSRKDQIQRLVLSTVVIFLACFLPYHVLLLVRSVWEASCDFAKGVFNAYHFSLLLTSFNCVADPVLYCFVSETTHRDLARLRGACLAFLTCSRTGRAREAYPLGAPEASGKSGAQGEEPELLTKLHPAFQTPNSPGSGGFPTGRLA [A211H]?
cAMP reporter score ([1]; pH 5.5): 1.17; cAMP reporter score ([1]; pH 6): -0.783; cAMP reporter score ([1]; pH 6, modulator: ogerin): 0.106; cAMP reporter score ([1]; pH 6.5, modulator: ogerin): -0.179; surface expression score [2]: -0.539

Which cAMP reporter score ([1]; pH 5.5) does the source give for MGNITADNSSMSCTIDHTIHQTLAPVVYVTVLVVGFPANCLSLYFGYLQIKARNELGVYLCNLTVADLFYICSLPFWLQYVLQHDNWSHGDLSCQVCGILLYENIYISVGFLCCISVDRYLAVAHPFRFHQFRTLKAAVGVSVVIWAKELLTSIYFLMHEEVIEDENQHRVCFEHYPIQAWQRAINYYRFLVGFLFPICLLLASYQGILRIVRRSHGTQKSRKDQIQRLVLSTVVIFLACFLPYHVLLLVRSVWEASCDFAKGVFNAYHFSLLLTSFNCVADPVLYCFVSETTHRDLARLRGACLAFLTCSRTGRAREAYPLGAPEASGKSGAQGEEPELLTKLHPAFQTPNSPGSGGFPTGRLA [A211I] here?
The cAMP reporter score was 1.46.

And the cAMP reporter score ([1]; pH 6)?
The cAMP reporter score was 0.52.

And the cAMP reporter score ([1]; pH 6, modulator: ogerin)?
The cAMP reporter score was 0.87.

What about the cAMP reporter score ([1]; pH 6.5, modulator: ogerin) of the same variant?
The cAMP reporter score was 1.02.

And the surface expression score [2]?
The surface expression score was -0.402.

Which cAMP reporter score ([1]; pH 5.5) does the source give for MGNITADNSSMSCTIDHTIHQTLAPVVYVTVLVVGFPANCLSLYFGYLQIKARNELGVYLCNLTVADLFYICSLPFWLQYVLQHDNWSHGDLSCQVCGILLYENIYISVGFLCCISVDRYLAVAHPFRFHQFRTLKAAVGVSVVIWAKELLTSIYFLMHEEVIEDENQHRVCFEHYPIQAWQRAINYYRFLVGFLFPICLLLASYQGILRKVRRSHGTQKSRKDQIQRLVLSTVVIFLACFLPYHVLLLVRSVWEASCDFAKGVFNAYHFSLLLTSFNCVADPVLYCFVSETTHRDLARLRGACLAFLTCSRTGRAREAYPLGAPEASGKSGAQGEEPELLTKLHPAFQTPNSPGSGGFPTGRLA [A211K] here?
Its cAMP reporter score is -0.057.

And the cAMP reporter score ([1]; pH 6)?
The cAMP reporter score was -0.007.

What about the cAMP reporter score ([1]; pH 6, modulator: ogerin) of the same variant?
Its cAMP reporter score is -0.378.

And the cAMP reporter score ([1]; pH 6.5, modulator: ogerin)?
The cAMP reporter score was -0.929.

What about the surface expression score [2] of the same variant?
The surface expression score was 0.106.

Which results are given for MGNITADNSSMSCTIDHTIHQTLAPVVYVTVLVVGFPANCLSLYFGYLQIKARNELGVYLCNLTVADLFYICSLPFWLQYVLQHDNWSHGDLSCQVCGILLYENIYISVGFLCCISVDRYLAVAHPFRFHQFRTLKAAVGVSVVIWAKELLTSIYFLMHEEVIEDENQHRVCFEHYPIQAWQRAINYYRFLVGFLFPICLLLASYQGILRLVRRSHGTQKSRKDQIQRLVLSTVVIFLACFLPYHVLLLVRSVWEASCDFAKGVFNAYHFSLLLTSFNCVADPVLYCFVSETTHRDLARLRGACLAFLTCSRTGRAREAYPLGAPEASGKSGAQGEEPELLTKLHPAFQTPNSPGSGGFPTGRLA [A211L]?
cAMP reporter score ([1]; pH 5.5): -1.03; cAMP reporter score ([1]; pH 6): -0.862; cAMP reporter score ([1]; pH 6, modulator: ogerin): -1.8; cAMP reporter score ([1]; pH 6.5, modulator: ogerin): -0.986; surface expression score [2]: -1.83
